According to the supplement of paper PMC4967469:
IC50 is the fitted dose that halves viability relative to control wells, and lower means more sensitive; a limit (>, <) means that the fit lies beyond the doses tested. AUC, from the same fit, is the share of area under the viability curve across the 256-fold dose range; values near 1 show little effect. For some assays here: Any top dose called inferred was derived from the fitted curves, not read from the paper. For some assays here: Drugs with an entry number were screened twice under separate entries, and the two screens often disagree.

Tests used:
Assay in all cases: Viability of human cancer cell lines after 72 h of drug (GDSC screen)
[1] = compound: C[C@@H](N)c1ccc(C(=O)Nc2ccnc3[nH]ccc23)cc1 [Y-39983]; conditions: top dose 20 µM; top dose inferred
Description: (§1)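 Human cancer cell lines in 384-well plates, medium with 10% serum, drug for 72 h over a 256-fold dose range (nine 2-fold or five 4-fold steps up to the top dose). Adherent lines were fixed and stained with the nucleic acid dye Syto60, suspension lines read with resazurin; signal relative to control wells, capped at 0 and 100%. One two-parameter sigmoid per drug and line, fitted in a mixed model over all curves with the slope shared within a line.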

[2] = compound: CCCS(=O)(=O)Nc1ccc(F)c(C(=O)c2c[nH]c3ncc(Cl)cc23)c1F [PLX4720]; conditions: top dose 10 µM
Description: as §1

[3] = compound: NC(=O)Nc1sc(-c2ccc(F)cc2)cc1C(N)=O [TPCA-1]; conditions: top dose 20 µM
Description: as §1

[4] = compound: CN1CCN(CCOc2cc(OC3CCOCC3)c3c(Nc4c(Cl)ccc5c4OCO5)ncnc3c2)CC1 [AZD-0530]; conditions: top dose 2 µM
Description: as §1

[5] = compound: C/C(=C\c1csc(C)n1)[C@@H]1C[C@@H]2O[C@]2(C)CCC[C@H](C)[C@H](O)[C@@H](C)C(=O)C(C)(C)[C@@H](O)CC(=O)O1 [Epothilone B]; conditions: top dose 0.032 µM; top dose inferred
Description: as §1

[6] = compound: CCc1nc(N)nc(N)c1-c1ccc(Cl)cc1 [Pyrimethamine]; conditions: top dose 20 µM; top dose inferred
Description: as §1

[7] = compound: CC(C)CC(=O)Nc1n[nH]c2c1CN(C(=O)C1CCN(C)CC1)C2(C)C [PHA-793887]; conditions: top dose 10.24 µM
Description: as §1

[8] = screen: GDSC drug entry 1371, top dose inferred

Cell Line	AUC [1]	IC50 [1] [nM]	AUC ([2]; screen: GDSC drug entry 1036)	IC50 ([2]; screen: GDSC drug entry 1036) [nM]	AUC [2, 8]	IC50 [2, 8] [nM]	AUC [3]	IC50 [3] [nM]	AUC [4]	IC50 [4] [nM]	AUC [5]	IC50 [5] [nM]	AUC [6]	IC50 [6] [nM]	AUC [7]	IC50 [7] [nM]
PF-382 (T-cell lymphoblastic leukaemia, suspension)	0.861	13700	0.99	> 10000	0.99	> 10000	0.667	3410	0.931	> 2000	0.743	8.89	0.866	14200	0.566	944
PL-21 (acute myeloid leukaemia, suspension)	0.633	3100	–	–	0.958	> 10000	0.601	2490	0.982	> 2000	0.708	8.58	0.863	> 20000	0.461	491
PSN1 (pancreas, adherent)	0.844	11100	0.946	> 10000	0.984	> 10000	0.812	8670	0.977	> 2000	0.171	0.254	0.649	2990	0.279	171
QIMR-WIL (acute myeloid leukaemia, suspension)	0.826	11700	0.935	> 10000	0.966	> 10000	0.378	583	0.952	> 2000	0.427	1.27	0.777	7770	0.349	247
REH (B-cell leukaemia, suspension)	0.878	18900	0.962	> 10000	0.963	> 10000	0.578	2020	0.974	> 2000	0.487	1.84	0.943	> 20000	0.262	138
RF-48 (stomach, adherent)	0.813	12500	0.953	> 10000	0.975	> 10000	0.307	334	0.935	> 2000	0.609	4.14	0.833	15100	0.642	1660
RH-1 (rhabdomyosarcoma, adherent)	0.866	13200	0.967	> 10000	0.985	> 10000	0.575	1940	0.991	> 2000	0.341	0.786	0.966	> 20000	0.701	2100
RKO (large intestine, adherent)	0.961	> 20000	0.973	> 10000	0.957	> 10000	0.893	> 20000	0.983	> 2000	0.233	0.362	0.925	> 20000	0.711	2400
RL (B-cell lymphoma, suspension)	0.936	> 20000	0.986	> 10000	0.931	> 10000	0.773	7150	0.985	> 2000	0.982	> 32	0.966	> 20000	0.488	594
RPMI-6666 (Hodgkin lymphoma, suspension)	0.857	> 20000	0.951	> 10000	0.945	> 10000	0.392	595	0.876	> 2000	0.468	1.61	0.83	16300	0.322	183
RPMI-8226 (myeloma, suspension)	0.948	> 20000	0.962	> 10000	0.985	> 10000	0.89	17700	0.99	> 2000	0.587	3.34	0.948	> 20000	0.407	368
RPMI-8402 (T-cell lymphoblastic leukaemia, suspension)	0.719	4630	0.986	> 10000	0.971	> 10000	0.604	2300	0.969	> 2000	0.663	5.22	0.809	8480	0.429	424
RPMI-8866 (chronic myeloid leukaemia, suspension)	0.86	14900	0.787	4020	0.899	> 10000	0.457	964	0.988	> 2000	0.852	22	0.809	9530	0.408	366
RS4-11 (leukaemia, suspension)	0.849	13100	0.909	> 10000	0.98	> 10000	0.699	4280	0.989	> 2000	0.504	2.05	0.952	> 20000	0.124	47.1
RXF393 (kidney, adherent)	0.747	8640	0.95	> 10000	0.962	> 10000	0.84	> 20000	0.811	1610	0.581	3.62	0.878	> 20000	0.744	4320
Ramos-2G6-4C10 (Burkitt lymphoma, suspension)	0.657	3180	0.952	> 10000	0.99	> 10000	0.646	2970	0.964	> 2000	0.709	7	0.742	5430	0.482	577
